This is one part of the list. Values were computed here from the reads of four pooled replicates and scatter widely.

This assay has as its target T1, Pho4 (S. cerevisiae) (UniProt P07270).
T1 sequence: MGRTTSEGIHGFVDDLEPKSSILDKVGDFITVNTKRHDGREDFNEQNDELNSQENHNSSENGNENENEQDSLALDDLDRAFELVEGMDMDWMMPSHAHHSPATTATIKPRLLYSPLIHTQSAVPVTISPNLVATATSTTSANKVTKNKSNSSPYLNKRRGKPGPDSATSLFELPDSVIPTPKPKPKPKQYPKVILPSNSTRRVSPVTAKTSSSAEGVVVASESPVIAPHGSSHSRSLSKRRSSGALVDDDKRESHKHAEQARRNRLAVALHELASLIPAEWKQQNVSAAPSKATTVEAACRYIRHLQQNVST
The assay can be described thus: relative binding free energy (BET-seq); higher = weaker binding. The note with it: reference: library average.
For the sequence GGGTACACGTGGGGCG, the “relative binding free energy” value is -0.02 kcal/mol.
The result for ATGTGCACGTGGTAAT reads -0.02 kcal/mol.
The result for TGTATCACGTGTATAA reads 0.19 kcal/mol.
The result for GATATCACGTGAGAGG reads 0.26 kcal/mol; that for TATAACACGTGGCGTG, -0.06 kcal/mol; that for TTTTTCACGTGTGTAG, 0.27 kcal/mol.
On to AGTTTCACGTGTCGAT, for which the “relative binding free energy” value is 0.21 kcal/mol.
Regarding ATGATCACGTGTGAGT, the “relative binding free energy” value came to 0.08 kcal/mol.
The result for GTGGGCACGTGCCGGG reads -0.11 kcal/mol.
The result for TTGTGCACGTGCATGC reads -0.06 kcal/mol; that for TATCGCACGTGAAGGT, 0.23 kcal/mol; that for AGATTCACGTGGGGAG, 0.17 kcal/mol.
To GGGGACACGTGATAGT belongs 0.2 kcal/mol; to TGCGACACGTGTGGGT, 0.09 kcal/mol.
In the case of TGGTGCACGTGGATCA, the “relative binding free energy” value was -0.1 kcal/mol.
The result for TTTGCCACGTGCTTTG reads -0.1 kcal/mol; that for GGTTTCACGTGACTTG, 0.29 kcal/mol; that for AAGTGCACGTGATGAA, 0.11 kcal/mol.
To ATGCTCACGTGTTTGG belongs 0.28 kcal/mol; to TAGTACACGTGGGTGG, 0 kcal/mol.
The result for GTTTACACGTGTGTCT reads 0.11 kcal/mol; that for GGTATCACGTGATGGC, 0.44 kcal/mol.
Turning to TACATCACGTGTGTTT, the “relative binding free energy” value worked out at 0.15 kcal/mol.
The result for GTTCGCACGTGAGGTG reads 0.2 kcal/mol.
To CTGGTCACGTGTTCGT belongs 0.17 kcal/mol.
To GAGGACACGTGGGTTT belongs 0.07 kcal/mol; to AAGTTCACGTGAGCTT, 0.38 kcal/mol.
For the sequence AATTCCACGTGATTTT, the “relative binding free energy” value stood at 0.25 kcal/mol.
AGGGGCACGTGTCGAA: the “relative binding free energy” value is -0.19 kcal/mol.
To TTCATCACGTGTGTGG belongs 0.21 kcal/mol; to TTGTGCACGTGTCGGC, -0.12 kcal/mol; to GAGTGCACGTGGTTGC, 0.12 kcal/mol.
The result for ATTTACACGTGTATGA reads 0.22 kcal/mol.
As for CAATTCACGTGATGGT, the “relative binding free energy” value is 0.21 kcal/mol.
The result for GGGCGCACGTGCTGGG reads 0 kcal/mol; that for AGAAACACGTGAGGTA, 0.41 kcal/mol; that for TGGTTCACGTGGCGCA, 0.06 kcal/mol.
To GCGTACACGTGTTGGG belongs 0.12 kcal/mol; to AGTTGCACGTGAGCTG, 0.16 kcal/mol.
Turning to GTAGACACGTGTGTTG, the “relative binding free energy” value is -0.05 kcal/mol.
TTGCGCACGTGTAAAT: the “relative binding free energy” value was 0.11 kcal/mol.
To CTCGTCACGTGGGGGG belongs -0.24 kcal/mol; to AATGGCACGTGAGGGG, 0.15 kcal/mol; to GTGTCCACGTGGTTAT, -0.06 kcal/mol.
To GGATGCACGTGGGGAG belongs -0.08 kcal/mol.
The result for CCGTGCACGTGGGGCG reads -0.24 kcal/mol; that for CGGATCACGTGTGGAG, 0.34 kcal/mol; that for CTATTCACGTGGTATA, 0.13 kcal/mol.
As to GGAAGCACGTGTAAAT, the “relative binding free energy” value is 0.14 kcal/mol.
To TTGCTCACGTGTTCTT belongs 0.19 kcal/mol.
The result for TGCCGCACGTGAGGGT reads 0.09 kcal/mol.
For TTGAGCACGTGCCTGG, the “relative binding free energy” value is -0.13 kcal/mol.
On to GGGAACACGTGTTCGG, for which the “relative binding free energy” value amounted to 0.1 kcal/mol.
To AAAGTCACGTGATGTA belongs 0.08 kcal/mol; to GGGATCACGTGAAGTT, 0.42 kcal/mol; to GTCGTCACGTGGCGCG, 0.13 kcal/mol.
The result for TTTGGCACGTGGCCGA reads -0.21 kcal/mol; that for TTATGCACGTGCAGGG, -0.03 kcal/mol; that for GTGTACACGTGAAATT, 0.21 kcal/mol.
The result for GGCTTCACGTGGTGTC reads 0.34 kcal/mol; that for TTCGTCACGTGTAGAT, 0.31 kcal/mol; that for AAATTCACGTGTATGG, 0.21 kcal/mol.
In the case of GGACACACGTGCGGGG, the “relative binding free energy” value is -0.01 kcal/mol.
The result for TGAATCACGTGGTGAC reads 0.28 kcal/mol.
The result for TCGGTCACGTGATCGT reads 0.3 kcal/mol.
The result for CCGTTCACGTGAAGGG reads 0.37 kcal/mol; that for TGGTGCACGTGGAATA, 0.13 kcal/mol; that for ATTTACACGTGCTTGT, 0.03 kcal/mol.
Take TATCTCACGTGAGAGT: the “relative binding free energy” value came to 0.3 kcal/mol.
For AATATCACGTGAATGT, the “relative binding free energy” value was found to be 0.28 kcal/mol.
The result for AATGCCACGTGAGTGG reads 0.21 kcal/mol.
To TTGTGCACGTGGGATT belongs -0.05 kcal/mol; to AGGATCACGTGGACGA, 0.32 kcal/mol.
The result for TGAATCACGTGGTTGC reads 0.18 kcal/mol; that for AATTGCACGTGGAGAT, -0.08 kcal/mol.
As for CTTTGCACGTGGGTGC, the “relative binding free energy” value is -0.13 kcal/mol.
The result for CCAGGCACGTGGCGGG reads -0.26 kcal/mol; that for TTAAGCACGTGAGTGT, 0.17 kcal/mol.
The result for AGTTCCACGTGGTGGG reads 0.08 kcal/mol; that for ATCGTCACGTGTGGGT, 0.15 kcal/mol.
To AGAGTCACGTGGTAGC belongs 0.15 kcal/mol; to GTTTGCACGTGACTGT, 0.07 kcal/mol; to ATATCCACGTGTTTAG, 0.13 kcal/mol.
For the sequence GGACGCACGTGGAGGT, the “relative binding free energy” value was -0.12 kcal/mol.
The result for TGGCCCACGTGAGTGG reads 0.04 kcal/mol; that for AGGGTCACGTGTCTAT, 0.2 kcal/mol.
Take CGTGTCACGTGCGTGC: the “relative binding free energy” value was found to be 0.01 kcal/mol.
To GGGGCCACGTGTTTAG belongs -0.06 kcal/mol.
The result for GGGCGCACGTGGGGGC reads -0.17 kcal/mol; that for TACGGCACGTGTGGCT, -0.03 kcal/mol; that for TATCGCACGTGTTGAG, -0.03 kcal/mol.
To TTTGGCACGTGGCTGT belongs -0.11 kcal/mol; to GTTGCCACGTGATTGG, 0.03 kcal/mol; to GGCGGCACGTGTCGGT, -0.08 kcal/mol.
AGGGACACGTGGTTTA: the “relative binding free energy” value was -0.04 kcal/mol.
To AGACTCACGTGGGTGG belongs 0.1 kcal/mol.
On to GTTCGCACGTGGGAAT, for which the “relative binding free energy” value was 0.04 kcal/mol.
With GTAAACACGTGTGGGA, the “relative binding free energy” value worked out at 0.09 kcal/mol.
Consider TGGTTCACGTGGATGC, for which the “relative binding free energy” value amounted to 0.08 kcal/mol.
The result for AGCGGCACGTGTTATG reads -0.08 kcal/mol; that for GGAGTCACGTGGGATT, 0.13 kcal/mol.
On to TGGTGCACGTGCTATT, for which the “relative binding free energy” value was -0.09 kcal/mol.
To AGGGCCACGTGTGTGC belongs -0.15 kcal/mol; to GCGGTCACGTGATGTG, 0.25 kcal/mol; to TTTAGCACGTGGGAAA, -0.14 kcal/mol.
Turning to GGAGACACGTGGGCGG, the “relative binding free energy” value was -0.17 kcal/mol.
The result for GGCTGCACGTGTTAGG reads 0.11 kcal/mol; that for GGTGTCACGTGATGTA, 0.29 kcal/mol; that for GGTATCACGTGTACTG, 0.16 kcal/mol.
On to GGATCCACGTGGTATG, for which the “relative binding free energy” value is -0.01 kcal/mol.
To GAGCGCACGTGGTGGT belongs -0.09 kcal/mol; to AGGGACACGTGATTTG, 0.23 kcal/mol; to TTATGCACGTGGAATC, 0.16 kcal/mol.
To AAGTTCACGTGGAGCG belongs 0.31 kcal/mol; to GAGCTCACGTGGGTGA, 0.15 kcal/mol.

The values above are taken from the BET-seq Pho4 binding data (Le et al. 2018).
